The values that follow come from article PMC12136788.

The other results are listed elsewhere or left out.

T1: UNK ZnF1-6 (called full-length) (human, UniProt Q9C0B0 30-357)
T1 sequence: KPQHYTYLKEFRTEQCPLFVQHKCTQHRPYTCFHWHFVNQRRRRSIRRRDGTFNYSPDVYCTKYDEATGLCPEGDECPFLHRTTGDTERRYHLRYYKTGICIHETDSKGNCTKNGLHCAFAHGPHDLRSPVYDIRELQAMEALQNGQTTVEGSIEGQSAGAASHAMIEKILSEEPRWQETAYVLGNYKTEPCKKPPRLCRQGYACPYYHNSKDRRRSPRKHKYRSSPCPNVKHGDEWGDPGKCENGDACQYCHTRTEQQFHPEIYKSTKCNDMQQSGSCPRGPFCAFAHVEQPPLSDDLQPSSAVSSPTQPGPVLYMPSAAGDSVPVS

B1: ENSG00000139233:stop:overlap|stop_codon|ENSG00000139233|stop_codon|NA|stop_codon (ssRNA)
RNA: GGGAGUUCUACAGUCCGACGAUCAGAAAAGAAAGGGGAAAAGCAAAGCAAAAGCAGUGAAAGUGGCAAAGGGUUUGGCCUGGUAGACUCUUAAAACCUUGGAAAAUGCCACAUGGGAUAGAUGACGGAUUAGAAUGUAUACACCAACAGAGGAUUGAGCAUCA
B2: chr19:12875797:12875908:-|3pUTR|ENSG00000105612|unk|FALSE|unique (ssRNA)
RNA: GGGAGUUCUACAGUCCGACGAUCUUCGAGACCAGCCUGGGCUACAUAGUGAGACCACAUCUCUACUAGAACUUAAAAAAAGUUAGCCAGGCACGGUGAUAAAUGCCUGUAGUCCCAGCCACUGAAGCCAGAGGAUCGAUUGAACAACAGAGGAUUGAGCAUCA
B3: ENSG00000070961:be:win_4351|3pUTR|ENSG00000070961|bound_else_gene|NA|bound_elsewhere_windowed (ssRNA)
RNA: GGGAGUUCUACAGUCCGACGAUCGAAAAAAACAAAACAAAACAAAAAAACAUGAGCAGUGGUGUUCUAAUGAAGUUAUGACAUCUGUCCUAAUUAGUUUCUUAAAUACAUUUACUACUUAAUGGUUUUGAAGCAACUGUUUAACAACAGAGGAUUGAGCAUCA
B4: chr11:118751385:118751486:-|3pUTR|ENSG00000110367|msi1|total|mutant (ssRNA)
RNA: GGGAGUUCUACAGUCCGACGAUCUUGAAGUCUCUUCCCUUUCUACCCAGUACUCGAGCCCAGGGCCCGAAGUUGAAACUCACCCGUAAUGUUAAACACCAUUUUUUUUUUCUUUUUGGGGAGGAGUUGAUAUGCAACUGCAGUCAACAGAGGAUUGAGCAUCA
B5: chr11:43494716:43494817:+|3pUTR|ENSG00000052841|unk|total|mutant (ssRNA)
RNA: GGGAGUUCUACAGUCCGACGAUCGUUACCCAUCUUGGAAUAAGUUGUGAAUGUCAGCUCCCUCUCUCUGAGGCCUCCAGACUCCGCUCCUCAGGAGGGUAAUGAGCCAAGGUUGAGUGUUUCCAUACAAUGCUUUUACCUUUGCAACAGAGGAUUGAGCAUCA
B6: chr21:36416827:36416928:+|3pUTR|ENSG00000159259|unk|FALSE|unique (ssRNA)
RNA: GGGAGUUCUACAGUCCGACGAUCAACUUUGGAAGGUAGUUGUGUUUGUUUUCUGAUUUUAAAGGUGACGAUGCUUAUUCUUUUAGUAACUAAGUGAAGUGAAAAAGAUGGGUAUCACCCAUCAUCUUCCCACCAGAAGUAACCCAACAGAGGAUUGAGCAUCA
B7: ENSG00000100485:stop:overlap|stop_codon|ENSG00000100485|stop_codon|NA|stop_codon (ssRNA)
RNA: GGGAGUUCUACAGUCCGACGAUCAUAUAUAUACACAUAUAUAUACACACACACACACAUUUUAUGUGUCAGUUUUCAAUAUAUAGUUAACACAAAAGCUCUCAGCUUUUAAUUCAAAUAUAGGGAAUAUUUUUAACUUCACAGCAACAGAGGAUUGAGCAUCA
B8: chr20:58360308:58360409:+|3pUTR|ENSG00000124209|msi1|FALSE|unique (ssRNA)
RNA: GGGAGUUCUACAGUCCGACGAUCCAUUGAACAUGUUAGCCUAGGAUACGUACAGUAAAUUAACAAUGAUAGCAGCAGAUGCCUAGCUCAUCCUGGGUUUGCUUCUGACCUUGUCAUGUGUGUGCCACCAAACACGUUAUUGGCCAACAGAGGAUUGAGCAUCA
B9: chr9:121180810:121180911:-|3pUTR|ENSG00000119396|msi1|FALSE|unique (ssRNA)
RNA: GGGAGUUCUACAGUCCGACGAUCUUUGGAUAAAUUUCCUGUUGUGUGGGUGGCAUUUUUCUUAACGAGAUUUGCUUCUGUCUUAGCCUCACACAGGGAAAAUAUCCAUUUAUCUUCUCUCUCGUGCUUAAUUAAUAGCUUUAUCAACAGAGGAUUGAGCAUCA
B10: chr9:15474029:15474130:-|CDS|ENSG00000164985|unk|FALSE|unique (ssRNA)
RNA: GGGAGUUCUACAGUCCGACGAUCAAGAAAAGAGCCGGAUAAAAAAGAGGGGAAGAAAGAAGUUGAAUCAAAAAGGAAAAAUUUAGCUAAAACAGGGGUUACUUCAACCUCCGAUUCUGAAGAAGAAGGAGAUGAUCAAGAAGGCAACAGAGGAUUGAGCAUCA
B11: chr11:130405560:130406128:-|CDS|ENSG00000134917|control|control|control (ssRNA)
RNA: GGGAGUUCUACAGUCCGACGAUCGCUGGGGGACUGGUCUGAGUGCUCUAGCACCUGCGGGGCCGGCUGGCAGAGGCGAACUGUAGAGUGCAGGGACCCCUCCGGCCAGGCCUCUGCCACCUGCAACAAGGCUCUGAAACCCGACAACAGAGGAUUGAGCAUCA
B12: chr5:150709129:150709230:-|3pUTR|ENSG00000132912|msi1|FALSE|unique (ssRNA)
RNA: GGGAGUUCUACAGUCCGACGAUCCACAAAACACUUUGAUCAUAAACUUUUUUCUUCAGAAGCCAAACUAACUUGCAGAAUAAUAGAGCCACUGGUUUAAUGUUUCCUCAAGAUAGGUUUUAGUGUAAGCUAGUAUUCUGUGUGCAACAGAGGAUUGAGCAUCA
B13: chr16:84177846:84179851:-|three_prime_utr|ENSG00000103168|control|control|control (ssRNA)
RNA: GGGAGUUCUACAGUCCGACGAUCGCAGAGAGACCUGGGCUCCCUCCCUGCGGCAGAGCCACCCCCUGCACCCGAGUCAGGCCUAGAGGACAAGCUCAGUGAGCGCCUGGGGGAAGCCUGGGCAGGCCGAGGGGCUGCCUGGUGCAACAGAGGAUUGAGCAUCA
B14: chr1:113706032:113706133:-|CDS|ENSG00000116793|unk|total|mutant (ssRNA)
RNA: GGGAGUUCUACAGUCCGACGAUCCAAUGCCUAUCAGCAAGGAGCCGGUUAUCAGAUGCUGGGAAAUGUUGUCACUAUUGGAUCCGCAUUUUUUCCAUUCUUACAUCGACUUUUCCGUGAGAAGAGCCUUGACCAACUAAAGUCCAACAGAGGAUUGAGCAUCA

This assay addresses T1, UNK ZnF1-6 (called full-length). Put plainly: nsRBNS (natural sequence RNA bind-n-seq); RBNS binding buffer (assumed for nsRBNS): 25 mM Tris pH 7.5, 150 mM KCl, 3 mM MgCl2, 0.01% Triton X-100, 500 ug/ml BSA, 20 U/ml SUPERase-In, 4 C; UNK is unkempt and MSI1 is Musashi-1; names of the RNAs are library labels; protein concentration not given here; high values mean tight binding.
B1: the binding signal stood at 0.444 enrichment R.
As for B2, the figure is 0.736 enrichment R; as for B3, 0.592 enrichment R; as for B4, 1.43 enrichment R.
The figure for B5 is 0.55 enrichment R; for B6 it is 0.366 enrichment R.
As for B7, the figure is 0.753 enrichment R.
Molecule B8 came in with a binding signal of 0.982 enrichment R.
As for B9, the figure is 0.679 enrichment R; as for B10, 0.855 enrichment R.
The figure for B11 is 0.844 enrichment R; for B12 it is 0.596 enrichment R; for B13 it is 1.15 enrichment R.
B14 displayed a binding signal of 0.364 enrichment R.
